The target of assay [1] is Smt3 (SUMO), DNA Binding Domain fusion, two-hybrid bait (S. cerevisiae) [SUMO: Q12306]. The assay can be described thus: two-hybrid; Smt3 as bait (BD fusion), Yen1 versions as prey (AD fusion); growth on selective medium lacking leucine, tryptophan and histidine, with 3-aminotriazole.
Assay [2] addresses GST-Smt3 (S. cerevisiae) [SUMO: Q12306]. In words: pull-down; purified GST-Smt3 bound to glutathione matrix (GST buffer: 25 mM Tris-HCl pH 8.0, 150 mM NaCl, 1 mM DTT); purified wild-type or mutated Yen1 loaded, 3 min at 4°C, washed; retained proteins by immunoblot; both purified. In general terms: In western blotting, separated proteins are transferred to a membrane and probed.

Numbering of substitutions follows the chain as printed. Names may count otherwise. These are yes or no findings as the source states them, for the method shown. Some entries that bind do so weakly or less than the wild type. Tags and fused reporters may be left off the sequences shown.

B1: Yen1, wild-type full-length, Activator Domain fusion, two-hybrid prey (protein, UniProt P40028 1-759)
chain: MGVSQIWEFLKPYLQDSRIPLRKFVIDFNKSQKRAPRIAIDAYGWLFECGFIQNIDISARSRSRSRSPTRSPRDSDIDSSQEYYGSRSYTTTGKAVINFISRLKELLSLNVEFLLVFDGVMKPSFKRKFNHEQNATTCDDEKEYYSSWEQHVKNHEVYGNCKGLLAPSDPEFISLVRKLLDLMNISYVIACGEGEAQCVWLQVSGAVDFILSNDSDTLVFGGEKILKNYSKFYDDFGPSSITSHSPSRHHDSKESFVTVIDLPKINKVAGKKFDRLSLLFFSVLLGADYNRGVKGLGKNKSLQLAQCEDPNFSMEFYDIFKDFNLEDLTSESLRKSRYRLFQKRLYLYCKDHSVELFGRNYPVLLNQGSFEGWPSTVAIMHYFHPIVQPYFDEEVLSDKYINMAGNGHYRNLNFNELKYFLQSLNLPQISSFDKWFHDSMHEMFLLREFLSIDESDNIGKGNMRITEEKIMNIDGGKFQIPCFKIRYTTFLPNIPISSQSPLKRSNSPSRSKSPTRRQMDIMEHPNSLWLPKYLIPQSHPLVIQYYETQQLIQKEKEKKGKKSNKSRLPQKNNLDEFLRKHTSPIKSIGKVGESRKEILEPVRKRLFVDTDEDTSLEEIPAPTRLTTVDEHSDNDDDSLIFVDEITNSQSVLDSSPGKRIRDLTQDEQVDVWKDVIEISPIKKSRTTNAEKNPPESGLKSRSSITINARLQGTKMLPPNLTAPRLEREHSSVLDQLVTDAQDTVDRFVACDSDSSSTIE
On to B1, for which the binding entry in assay [1] is “binds”.

B2: Yen1-1xHA, wild-type, purified (protein, UniProt P40028 1-759)
chain: B1 chain
As to B2, the binding result in assay [2] is “binds”.

B3: Yen1 SIM1Δ (D635A D636A D637A), HA-tagged, purified (protein, UniProt P40028 1-759)
chain: B1 chain with D635A, D636A, D637A
For the molecule B3, the binding entry in assay [2] is given as “binds”.

B4: Yen1 SIM2Δ (V675A E677A), HA-tagged, purified (protein, UniProt P40028 1-759)
chain: B1 chain with V675A, E677A
B4: the binding result in assay [2] is given as “binds”.

B5: Yen1 C-terminal part (amino acids 354 to 759), Activator Domain fusion, two-hybrid prey (domain or fragment, UniProt P40028 354-759)
chain: VELFGRNYPVLLNQGSFEGWPSTVAIMHYFHPIVQPYFDEEVLSDKYINMAGNGHYRNLNFNELKYFLQSLNLPQISSFDKWFHDSMHEMFLLREFLSIDESDNIGKGNMRITEEKIMNIDGGKFQIPCFKIRYTTFLPNIPISSQSPLKRSNSPSRSKSPTRRQMDIMEHPNSLWLPKYLIPQSHPLVIQYYETQQLIQKEKEKKGKKSNKSRLPQKNNLDEFLRKHTSPIKSIGKVGESRKEILEPVRKRLFVDTDEDTSLEEIPAPTRLTTVDEHSDNDDDSLIFVDEITNSQSVLDSSPGKRIRDLTQDEQVDVWKDVIEISPIKKSRTTNAEKNPPESGLKSRSSITINARLQGTKMLPPNLTAPRLEREHSSVLDQLVTDAQDTVDRFVACDSDSSSTIE
With B5, the binding entry in assay [1] was “binds”.

B6: Yen1 truncated version lacking the C-terminal part (cut-off at amino acid 354), Activator Domain fusion, two-hybrid prey (domain or fragment, UniProt P40028 1-354)
chain: MGVSQIWEFLKPYLQDSRIPLRKFVIDFNKSQKRAPRIAIDAYGWLFECGFIQNIDISARSRSRSRSPTRSPRDSDIDSSQEYYGSRSYTTTGKAVINFISRLKELLSLNVEFLLVFDGVMKPSFKRKFNHEQNATTCDDEKEYYSSWEQHVKNHEVYGNCKGLLAPSDPEFISLVRKLLDLMNISYVIACGEGEAQCVWLQVSGAVDFILSNDSDTLVFGGEKILKNYSKFYDDFGPSSITSHSPSRHHDSKESFVTVIDLPKINKVAGKKFDRLSLLFFSVLLGADYNRGVKGLGKNKSLQLAQCEDPNFSMEFYDIFKDFNLEDLTSESLRKSRYRLFQKRLYLYCKDHSV
For the molecule B6, the binding result in assay [1] is “no binding”.

Source of the values: publication PMC8986097.
